{"source": "PubChem BioAssay AID1030", "about": "(National Center for Advancing Translational Sciences (NCATS), 2008)", "note": "Among all 220,000 compounds or so, about 16,000 (7.3%) were called active. The inconclusive results got no clear call from the source; some entries with a clear call stand among them for comparison. Calls come from the whole dose curve; as a rule, active = well fitted inhibition curve with a large enough effect (not every such curve was filed as active); inconclusive = small, poorly fitted or top-dose-only effect, or another doubt; inactive = no such curve, though single readings can be large or run the other way. Potencies of inconclusive entries are left out as doubtful fits. Potency is the fitted concentration of half-maximal effect; tags give direction and shape of the fitted curve."}
{"biological_target": "Aldehyde dehydrogenase 1A1 (Homo sapiens) (UniProt P00352)", "sequence (P00352 whole entry, looked up)": "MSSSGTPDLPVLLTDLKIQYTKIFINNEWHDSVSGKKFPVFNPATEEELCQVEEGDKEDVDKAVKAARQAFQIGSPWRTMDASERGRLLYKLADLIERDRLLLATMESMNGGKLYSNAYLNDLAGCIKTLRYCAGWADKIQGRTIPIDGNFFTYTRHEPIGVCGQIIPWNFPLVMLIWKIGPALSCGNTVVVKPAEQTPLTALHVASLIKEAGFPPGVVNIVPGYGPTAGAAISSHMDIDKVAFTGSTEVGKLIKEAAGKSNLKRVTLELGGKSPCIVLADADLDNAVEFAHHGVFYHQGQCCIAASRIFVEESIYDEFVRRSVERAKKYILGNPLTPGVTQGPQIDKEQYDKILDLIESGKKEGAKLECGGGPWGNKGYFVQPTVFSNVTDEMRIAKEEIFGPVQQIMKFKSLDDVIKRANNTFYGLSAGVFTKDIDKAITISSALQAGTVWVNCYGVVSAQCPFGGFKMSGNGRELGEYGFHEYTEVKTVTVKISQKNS", "experiment": "qHTS Assay for Inhibitors of Aldehyde Dehydrogenase 1 (ALDH1A1);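 for activity, negative = inhibition: plate controls were no enzyme wells and a reference inhibitor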", "conditions": "Purified ALDH1A1, NADH fluorescence, propionaldehyde substrate; series mostly up to 75.3 µM"}
{"molecule": "O=C(COC(=O)Cc1cccc(C(F)(F)F)c1)Nc1ccccc1", "Potency": "inconclusive [inhibitor, single point]"}
{"molecule": "C[N+](C)(C)CCCNC(=O)c1ccc(/C=N/O)nc1", "Potency": "inactive"}
{"molecule": "Cc1occc1C(=O)Nc1c(F)c(F)c(F)c(F)c1F", "Potency": "inactive"}
{"molecule": "Cc1cc(-c2csc(NC(=O)c3cc4ccccc4o3)n2)c(C)n1C", "Potency": "inconclusive [inhibitor, single point]"}
{"molecule": "COc1cc(-n2c(=O)c3ccccc3n(Cc3cc(=O)n4ccccc4n3)c2=O)cc(OC)c1OC", "Potency": "inconclusive [inhibitor, single point]"}
{"molecule": "Cc1cc(C)nc(Sc2ccc(/C=C(\\C#N)C(=O)Nc3ccccc3)o2)n1", "Potency": "inconclusive [inhibitor, partial curve, poor fit]"}
{"molecule": "CN1C(=O)CSC1=NC12CC3CC(CC(C3)C1)C2", "Potency": "inconclusive [inhibitor, single point]"}
{"molecule": "O=C(NCn1cnccc1=O)c1ccccc1", "Potency": "inconclusive [inhibitor, single point]"}
{"molecule": "O=C(CCSCCC(=O)NCc1ccco1)NCc1ccco1", "Potency": "active: 17.8 µM"}
{"molecule": "CCCCn1c(=N)n(CC(=O)c2ccc([N+](=O)[O-])cc2)c2ccccc21", "Potency": "inconclusive [inhibitor, single point]"}
{"molecule": "COc1ccc(Oc2ncc3nc(C)c(=O)n(CCC#N)c3n2)cc1", "Potency": "inconclusive [inhibitor, partial curve]"}
{"molecule": "O=C(c1ccncc1)N1CCC2(CCCN(c3ccc(-c4ccccc4)cc3)C2)CC1", "Potency": "inactive"}
{"molecule": "Cc1cccc(NC(=O)c2oc3ccc(S(=O)(=O)N4CCOCC4)cc3c2C)c1C", "Potency": "inconclusive [inhibitor, single point]"}
{"molecule": "COc1ccc(Cl)cc1Nc1nc(-c2sc(NC(=O)C(C)(C)C)nc2C)cs1", "Potency": "inconclusive [inhibitor, single point]"}
{"molecule": "O=C(CN1C(=O)/C(=C/c2ccccc2F)Sc2ccccc21)NCc1cccnc1", "Potency": "active: 20 µM"}
{"molecule": "Cn1c(NC(=O)COc2ccccc2)cc(=O)n(C)c1=O", "Potency": "active: 25.1 µM"}
{"molecule": "CCCCN(CC)S(=O)(=O)c1ccccc1", "Potency": "inactive"}
{"molecule": "CCOC(=O)C1=C(O)/C(=C/c2cccc(OC)c2O)N=C1C", "Potency": "inactive"}
{"molecule": "Cc1[nH]c2ccccc2c1/C=N/NS(=O)(=O)c1ccccc1", "Potency": "inactive"}
{"molecule": "COc1ccc(C(=O)CCN2CCN(c3ccccc3F)CC2)cc1", "Potency": "active: 0.126 µM"}
{"molecule": "COC(=O)Cc1ccc(NC(=S)NCc2ccc(OC)cc2)cc1", "Potency": "inconclusive [inhibitor, single point]"}
{"molecule": "O=C(C1=C[C@@H](c2ccc(Br)cc2)C[C@@H](OCCCCO)O1)N1CCN(Cc2ccccc2)CC1", "Potency": "inconclusive [inhibitor, full curve]"}
{"molecule": "O=C(c1ccc(F)cc1)N1CCN(Cc2ccccc2Br)CC1", "Potency": "inconclusive [inhibitor, single point]"}
{"molecule": "O=C1N(Cc2ccccc2F)c2ccccc2C12OCCCO2", "Potency": "active: 22.4 µM"}
{"molecule": "COCCNC(=O)c1cc2nc(-c3ccccc3)cc(C)n2n1", "Potency": "inconclusive [inhibitor, single point]"}
{"molecule": "O=C(NC(=S)Nc1ccc(S(=O)(=O)Nc2nccs2)cc1)c1ccccc1F", "Potency": "active: 2 µM"}
{"molecule": "Cc1cc(C)n(-c2ncnc3sc(C)c(C)c23)n1", "Potency": "inconclusive [inhibitor, single point]"}
{"molecule": "Cn1cc2cc(NC(N)=S)ccc2n1", "Potency": "inactive"}
{"molecule": "Cc1ccc(OCc2nnc(SCc3ccc(C#N)cc3)n2-c2ccc(C)cc2)cc1", "Potency": "inconclusive [inhibitor, single point]"}
{"molecule": "OCC1(Cc2ccccc2)CCN(C2CCN(c3ccc(F)c(F)c3)CC2)CC1", "Potency": "inconclusive [inhibitor, partial curve]"}
{"molecule": "COc1ccc(NC(=S)N2c3ccccc3CC2C)cc1OC", "note": "(centres undefined)", "Potency": "inconclusive [inhibitor, single point]"}
{"molecule": "Cc1cc(C(=O)N2CCOCC2)ccc1[N+](=O)[O-]", "Potency": "inconclusive [inhibitor, single point]"}
{"molecule": "Cc1ccc(S(=O)(=O)c2cc3c(=O)n4ccccc4nc3n(Cc3ccco3)c2=N)cc1C", "Potency": "inconclusive [inhibitor, partial curve]"}
{"molecule": "COc1ccc(S(=O)(=O)N2CCN(C(=O)COc3ccc4c(C)cc(=O)oc4c3)CC2)cc1", "Potency": "inconclusive [inhibitor, partial curve]"}
{"molecule": "COc1ccc(Cn2cnc3c(NS(C)(=O)=O)c(C)c(C)cc32)cc1", "Potency": "inconclusive [inhibitor, single point]"}
{"molecule": "C/C(=N\\NC(=O)c1cc2c(s1)CCC(C)C2)c1ccncc1", "note": "(centres undefined)", "Potency": "inconclusive [inhibitor, single point]"}
{"molecule": "CC(C)(C)c1ccc(S(=O)(=O)N2CCCCC2)cc1", "Potency": "inactive"}
{"molecule": "COC(=O)[C@@]1(Cc2ccccc2)[C@H]2c3cc(C(=O)N(C)C)n(C[C@H](O)CO)c3C[C@H]2CN1C(=O)c1ccccc1", "Potency": "inactive"}
{"molecule": "CSc1ccc(S(=O)(=O)Nc2ccc(OCC(=O)N3CCOCC3)cc2)cc1", "Potency": "active: 12.6 µM"}
{"molecule": "COc1ccc(N(C(=O)Cn2nnc3ccccc32)C(C(=O)NCc2ccco2)c2ccc(C)o2)cc1", "note": "(centres undefined)", "Potency": "inconclusive [inhibitor, single point]"}
{"molecule": "Cc1cc2cc(CNC(=O)Nc3cccc(Cl)c3)ccc2n1C", "Potency": "active: 22.4 µM"}
{"molecule": "CCCn1c(NC(=O)c2ccc(Cl)c(S(=O)(=O)N3CCCC3)c2)nc2ccccc21", "Potency": "inconclusive [inhibitor, single point]"}
{"molecule": "CCOc1ccc(-n2c(N)c(C(=O)N3CCN(C)CC3)sc2=S)cc1", "Potency": "inactive"}
{"molecule": "CCOC(=O)c1c(N2C(=O)Nc3cc(Cl)c(Cl)cc3N2O)sc2c1CCCCC2", "Potency": "inconclusive [inhibitor, single point]"}
{"molecule": "CCc1cccc(CC)c1-n1c(SCn2nnc3ccccc3c2=O)nnc1-c1cccnc1", "Potency": "inconclusive [inhibitor, single point]"}
{"molecule": "Cc1cc(C(F)F)n2ncc(C(=O)NCc3ccccc3)c2n1", "Potency": "inconclusive [inhibitor, single point]"}
{"molecule": "Nc1nc2ccc([N+](=O)[O-])c(N)c2s1", "Potency": "inconclusive [inhibitor, single point]"}
{"molecule": "CCC1=C2CC[C@H]3C(=O)N(CC)C(=O)[C@H]3[C@H]2[C@@]2(Cc3ccccc3)C(=NCC3CC3)OC(=O)N2C1=O", "Potency": "inactive"}
{"molecule": "CCCN(CCC)C(C(=O)Nc1cccc(OC)c1)c1ccccc1", "note": "(centres undefined)", "Potency": "inconclusive [inhibitor, single point]"}
{"molecule": "CC(C)Nc1nc(NC(C)C)nc(N(C#N)C(C)C(=O)N(C)C)n1", "note": "(centres undefined)", "Potency": "inconclusive [inhibitor, single point]"}
{"molecule": "CCCN1CNC(=S)N(CC2CCCO2)C1", "note": "(centres undefined)", "Potency": "inactive"}
{"molecule": "CCCCc1cc(=O)oc2c(CN(CC)CC)c(O)c(Cl)cc12", "Potency": "inconclusive [inhibitor, partial curve]"}
{"molecule": "N#Cc1ccc(NC(=O)c2nc(-c3ccccc3)n(-c3ccccc3)n2)cc1", "Potency": "inconclusive [inhibitor, partial curve]"}
{"molecule": "c1coc(CNCc2cccs2)c1", "Potency": "inactive"}
{"molecule": "Cc1nc(NC2CCCCC2)c2nc(-c3ccccc3)n(CCCN3CCOCC3)c2n1", "Potency": "inconclusive [inhibitor, partial curve]"}
{"molecule": "CC(C)(C)c1ccc(OCC(=O)N/N=C/c2ccsc2)cc1", "Potency": "inactive"}
{"molecule": "CCCc1ccc(OCc2ccc(C(=O)N3CCN(c4ccccn4)CC3)o2)c(OC)c1", "Potency": "inactive"}
{"molecule": "CC(C)CCN(CCC(C)C)CC(O)Cn1c2ccccc2c(=O)c2ccccc21", "note": "(centres undefined)", "Potency": "inconclusive [inhibitor, partial curve]"}
{"molecule": "COC(=O)C1=C(C)C(c2ccc(OC)cc2)NC(=O)N1", "note": "(centres undefined)", "Potency": "inactive"}
{"molecule": "CC(Sc1ccc(Cl)cc1)C(=O)NCc1ccc2c(c1)OCO2", "note": "(centres undefined)", "Potency": "inconclusive [inhibitor, partial curve]"}
{"molecule": "CCN1CCc2c(sc3c2c(NCc2ccco2)nc2nnnn23)C1", "Potency": "inconclusive [inhibitor, partial curve]"}
{"molecule": "CC(Cl)C(=O)NC(=O)NC12CC3CC(CC(C3)C1)C2", "note": "(centres undefined)", "Potency": "inactive"}
{"molecule": "O=C(Nc1ccccc1C(=O)O)c1cncc(Br)c1", "Potency": "active: 14.1 µM"}
{"molecule": "CN(C)C(=O)CNc1n[nH]c(=S)[nH]c1=O", "Potency": "inactive"}
{"molecule": "CC(C)Oc1ccc(C(=O)Nc2ccc(N(C)C)cc2)cc1", "Potency": "inconclusive [inhibitor, partial curve]"}
{"molecule": "S=C(NCc1ccco1)N1CCN(C(c2ccccc2)c2ccccc2)CC1", "Potency": "inconclusive [inhibitor, single point]"}
{"molecule": "O=C(O)C1CC2(C1)CC(C(=O)O)C2", "note": "(centres undefined)", "activity, negative = inhibition": "inactive: 7.52% [at 13.5 µM]"}
{"molecule": "CC1(C)CC(=O)C(C(=O)Cc2ccccc2[N+](=O)[O-])C(=O)C1", "Potency": "inactive"}
{"molecule": "COc1ccc(C=Nc2cccc3ncccc23)cc1", "Potency": "active: 17.8 µM"}
{"molecule": "COc1cc2c(cc1OC)C1=C(C#N)CC/C(=N\\S(=O)(=O)c3ccccc3)N1CC2", "Potency": "inactive"}
{"molecule": "Cc1ccc(C)c(N=C2CCCN2Cc2ccccc2)c1C#N", "Potency": "inactive"}
{"molecule": "O=C(COc1ccccc1)NNc1c2ccccc2nc2ccccc12", "Potency": "inconclusive [inhibitor, single point]"}
{"molecule": "CCOC(=O)N1CCc2c(sc3c2C(=O)NC(c2ccccc2)N3)C1", "note": "(centres undefined)", "Potency": "inconclusive [inhibitor, partial curve]"}
{"molecule": "Cc1ccc(S(=O)(=O)N2CCN=C2SCc2ccccc2)cc1", "Potency": "inconclusive [inhibitor, single point]"}
